Experimental data from the supplement of paper PMC4604168 (melanoma cell lines).
The list shows a part of the results. Most values come without repeats; read them as rough.

tested on: LOXIMVI; experiment: cell count relative to DMSO control; melanoma cells; higher = more viable cells; conditions: library dose: standard library concentration; 72 h
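Note: cells treated in 1,536-well plates, then fixed and DAPI-stained, with nuclei counted from automated high-throughput microscope images.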

SMILES | cell count [%]
CCCS(=O)(=O)Nc1ccc(F)c(C(=O)c2c[nH]c3ncc(Cl)cc23)c1F + CCN(CC)CCCCNc1ncc2cc(-c3cc(OC)cc(OC)c3)c(NC(=O)NC(C)(C)C)nc2n1 [PD173074] (first compound 0.4 µM, partner dose 0.5 µM) | 94.7
CN(c1ncccc1CNc1nc(Nc2ccc3c(c2)CC(=O)N3)ncc1C(F)(F)F)S(C)(=O)=O + Cn1c(Nc2ccc(C(F)(F)F)cc2)nc2cc(Oc3ccnc(-c4ncc(C(F)(F)F)[nH]4)c3)ccc21 [CHIR265] (first compound 0.4 µM, partner dose 0.4 µM) | 64.6
C=C(c1ccc(C(=O)O)cc1)c1cc2c(cc1C)C(C)(C)CCC2(C)C [Bexarotene] + CC(=O)c1c(C)c2cnc(Nc3ccc(N4CCNCC4)cn3)nc2n(C2CCCC2)c1=O [palbociclib] (first compound 10 µM, partner dose 0.2 µM) | 50.3
C=C(c1ccc(C(=O)O)cc1)c1cc2c(cc1C)C(C)(C)CCC2(C)C [Bexarotene] + Cc1nc(Nc2ncc(C(=O)Nc3c(C)cccc3Cl)s2)cc(N2CCN(CCO)CC2)n1 [dasatanib] (first compound 10 µM, partner dose 0.02 µM) | 36.6
CCCS(=O)(=O)Nc1ccc(F)c(C(=O)c2c[nH]c3ncc(Cl)cc23)c1F + NCC(=O)Nc1ccc(-n2nc(C(F)(F)F)cc2-c2ccc3c(ccc4ccccc43)c2)cc1 [OSU03012] (first compound 0.4 µM, partner dose 5 µM) | 99.3
NC1(c2ccc(-c3nc4ccn5c(=O)[nH]nc5c4cc3-c3ccccc3)cc2)CCC1 + OCCn1cc(-c2cnc3nnn(Cc4ccc5ncccc5c4)c3n2)cn1 [PF04217903] (first compound 2 µM, partner dose 5 µM) | 97.5
C=C(c1ccc(C(=O)O)cc1)c1cc2c(cc1C)C(C)(C)CCC2(C)C [Bexarotene] + C#Cc1cccc(Nc2ncnc3cc(OCCOC)c(OCCOC)cc23)c1 [erlotinib] (first compound 10 µM, partner dose 4 µM) | 130
CS(=O)(=O)c1ccc(C(=O)Nc2ccc(Cl)c(-c3ccccn3)c2)c(Cl)c1 [vismodegib] + CC(C)CCN1c2nc(Nc3cc(F)c(O)c(F)c3)ncc2N(C)C(=O)C1C [BID1870] (first compound 5 µM, partner dose 1 µM) | 89.7
NC1(c2ccc(-c3nc4ccn5c(=O)[nH]nc5c4cc3-c3ccccc3)cc2)CCC1 + COc1cc2c(Oc3ccc4[nH]c(C)cc4c3F)ncnc2cc1OCCCN1CCCC1 [cediranib] (first compound 2 µM, partner dose 2 µM) | 62.2
C=C(c1ccc(C(=O)O)cc1)c1cc2c(cc1C)C(C)(C)CCC2(C)C [Bexarotene] + COc1ccc2c(c1)CCC1C2CCC2(C)C(NCCCCCCN3C(=O)C=CC3=O)CCC12 [U73122] (first compound 10 µM, partner dose 2 µM) | 68.6
NC1(c2ccc(-c3nc4ccn5c(=O)[nH]nc5c4cc3-c3ccccc3)cc2)CCC1 + CS(=O)(=O)CCNCc1ccc(-c2ccc3ncnc(Nc4ccc(OCc5cccc(F)c5)c(Cl)c4)c3c2)o1 [lapatinib] (first compound 2 µM, partner dose 4 µM) | 84.6
CS(=O)(=O)c1ccc(C(=O)Nc2ccc(Cl)c(-c3ccccn3)c2)c(Cl)c1 [vismodegib] + COCC[n+]1c2c(n(Cc3cnccn3)c1C)C(=O)c1ccccc1C2=O [YM155] (first compound 5 µM, partner dose 0.002 µM) | 66.4
CCCS(=O)(=O)Nc1ccc(F)c(C(=O)c2c[nH]c3ncc(Cl)cc23)c1F + CC(=O)c1c(C)c2cnc(Nc3ccc(N4CCNCC4)cn3)nc2n(C2CCCC2)c1=O [palbociclib] (first compound 0.4 µM, partner dose 0.2 µM) | 74.1
C=C(c1ccc(C(=O)O)cc1)c1cc2c(cc1C)C(C)(C)CCC2(C)C [Bexarotene] + O=C(O)C(=O)Nc1sc2c(c1C(=O)O)CCNC2 [TCS401] (first compound 10 µM, partner dose 8.33333 µM) | 106
CCCS(=O)(=O)Nc1ccc(F)c(C(=O)c2c[nH]c3ncc(Cl)cc23)c1F + Nc1nc(F)nc2c1ncn2[C@@H]1O[C@H](CO)[C@@H](O)[C@@H]1O [fludarabine] (first compound 0.4 µM, partner dose 1 µM) | 147
NC1(c2ccc(-c3nc4ccn5c(=O)[nH]nc5c4cc3-c3ccccc3)cc2)CCC1 + COc1ccc2c(c1)CCC1C2CCC2(C)C(NCCCCCCN3C(=O)C=CC3=O)CCC12 [U73122] (first compound 2 µM, partner dose 2 µM) | 80.3
CS(=O)(=O)c1ccc(C(=O)Nc2ccc(Cl)c(-c3ccccn3)c2)c(Cl)c1 [vismodegib] + COc1cc(N2CCC(N3CCN(C)CC3)CC2)ccc1Nc1ncc(Cl)c(Nc2ccccc2S(=O)(=O)C(C)C)n1 [NVP-TAE684] (first compound 5 µM, partner dose 0.4 µM) | 213
C=C(c1ccc(C(=O)O)cc1)c1cc2c(cc1C)C(C)(C)CCC2(C)C [Bexarotene] + O=c1cc(-c2cccc3c2Sc2ccccc2S3)oc(N2CCOCC2)c1 [KU55933] (first compound 10 µM, partner dose 5 µM) | 126
CS(=O)(=O)c1ccc(C(=O)Nc2ccc(Cl)c(-c3ccccn3)c2)c(Cl)c1 [vismodegib] + OCc1c[nH]c2ccccc12 [Indole-3-carbinol] (first compound 5 µM, partner dose 4 µM) | 101
CN(c1ncccc1CNc1nc(Nc2ccc3c(c2)CC(=O)N3)ncc1C(F)(F)F)S(C)(=O)=O + CC1(C)NC(=O)N(c2ccc([N+](=O)[O-])c(C(F)(F)F)c2)C1=O [nilutamide] (first compound 0.4 µM, partner dose 5 µM) | 74.1
CS(=O)(=O)c1ccc(C(=O)Nc2ccc(Cl)c(-c3ccccn3)c2)c(Cl)c1 [vismodegib] + NCC(=O)Nc1ccc(-n2nc(C(F)(F)F)cc2-c2ccc3c(ccc4ccccc43)c2)cc1 [OSU03012] (first compound 5 µM, partner dose 5 µM) | 90.6
CS(=O)(=O)c1ccc(C(=O)Nc2ccc(Cl)c(-c3ccccn3)c2)c(Cl)c1 [vismodegib] + C[C@]1(c2nc3c(C(N)=O)cccc3[nH]2)CCCN1 [Veliparib] (first compound 5 µM, partner dose 7 µM) | 107
NC1(c2ccc(-c3nc4ccn5c(=O)[nH]nc5c4cc3-c3ccccc3)cc2)CCC1 + C=CCn1c(=O)c2cnc(Nc3ccc(N4CCN(C)CC4)cc3)nc2n1-c1cccc(C(C)(C)O)n1 [MK1775] (first compound 2 µM, partner dose 0.1 µM) | 67.8
